Data: patent US20200062696A1, “COMPOSITIONS AND METHODS FOR INHIBITING RETICULON 4” (THE REGENTS OF THE UNIVERSITY OF CALIFORNIA, priority 2017, published 2020)

Tests used:
[1] = tested on: GFP-expressing MEF cells; assay: Apoptosis (propidium iodine and Annexin-V, flow cytometry) in GFP-expressing MEF cells; format: cell-based, mouse; conditions: DKM 3-30 50 μM, 0, 8 or 16 h
Experimental: FIG. 12. Effect of DKM 3-30 in Mouse Embryonic Fibroblast (MEF) cells expressing human RTN4. C1101 in human RTN4 is instead a serine in mouse RTN4. […] GFP or RTN4-GFP expressing MEF cells were treated with DKM 3-30 (50 μM) for 0, 8, or 16 h and apoptotic cells (propidium iodine positive and Annexin-V positive) were assessed by flow cytometry. Data are presented as mean±sem. Significance is expressed as *p<0.05 compared to 0 h time-point.

[2] = tested on: U2OS osteosarcoma cells; assay: Serum-free cell survival of U2OS cells; format: cell-based; conditions: 50 μM, 48 h
Experimental: FIGS. 11A-11C. DKM 3-30 and analogs. (FIG. 11A) Structures of DKM 3-30 and analogs. (FIG. 11B) Gel-based ABPP analysis showing competition side-by-side competition studies of DKM 3-30, YP 1-46, and AMR 1-125 against IA-rhodamine labelling of pure human RTN4. Shown are the 50% inhibitory concentration (IC50) values for each compound. (FIG. 11C) Serum-free cell survival of U2OS (48 h) or SW620 (24 h) cells treated with DMSO vehicle or each compound (50 μM). Data in (C) are presented as mean±sem. Significance is expressed as *p<0.001 compared to vehicle-treated controls.
Cell Culture. SW620 cells were purchased from ATCC. SW620 cells were grown in L-15 media with 10% fetal bovine serum (FBS) in ambient CO2. U2OS cells were grown in DMEM media supplemented with 10% FBS at 37° C. with 5% CO2.
Survival and Proliferation Assays. Cells were plated the evening before the experiment, and allowed to adhere overnight. For serum-free cell survival assays, cells were plated in media not containing FBS. For cell proliferation assays, cells were plated in regular media. For the chemical genetics screen, cells were treated with either DMSO or the cysteine-reactive fragment for 48 h and cell viability was assessed by Hoescht stain using our previously described methods

C=CC(=O)Nc1ccc(Oc2ccc(Cl)cc2)cc1 [DKM 3-30, N-(4-(4-chlorophenoxy)phenyl)acrylamide]
viability / apoptosis in GFP-expressing MEF cells [1]: does not show viability impairments | cell survival in U2OS cells [2]: impairs osteosarcoma cell survival
